Experimental data reported in ChEMBL document CHEMBL4888484, “Replenishing the malaria drug discovery pipeline: Screening and hit evaluation of the MMV Hit Generation Library 1 (HGL1) against asexual blood stage Plasmodium falciparum ,using a nano luciferase reporter read-out” (2022).
Hit rate of the full screen: of about 150,000 compounds, about 540 (0.36%) showed an effect of 50% or more. This is one part of the list.

tested on: Plasmodium falciparum; assay: Primary screen in NF54 nanoGlo assay, in single point, at 2uM, 72h; a lower Z score goes with more inhibition; format: functional, Erythrocyte; conditions: timepoint 72 hour

Structure (SMILES) | % Inhibition | Z score
Cc1ccc(OCCn2ccc(=O)c3cccc(OC(F)(F)F)c32)cc1 | -2% | 0.31
COc1cccc(Cn2cnc(-c3ccccc3)c2-c2cccnc2)c1OC | -2% | 0.38
CC1CN(C(=O)C2=NN(c3ccccc3)C(=O)CN2)CC(C)O1 (stereo not drawn) | -1% | 0.07
COc1ccc(NC(C)=O)cc1-n1ccnc1-c1ccc(Cl)s1 | 5% | -0.66
Cc1cccc(NC(=O)Cn2nc(N3CCC(C)CC3)c3ccccc3c2=O)c1 | -7% | 1.05
FC(F)(F)c1cnc(CCCn2ccnc2)c(Cl)c1 | -9% | 1.19
Cc1ccc(CNC(=O)N2CCCC(O)C2C)c2ccccc12 (stereo not drawn) | -5% | 0.88
CCCc1nnc(NC[C@H](C)n2nc(C)cc2C)o1 | 9% | -1.02
CCCCNC(=O)c1c(O)c2cccc3c2n(c1=O)CCC3 | -12% | 1.11
C(=C\c1ccccc1)/CNCc1ccco1 | -9% | 1.2
Cc1nnc(-c2ccc3ccn(CC(=O)Nc4ccccn4)c3c2)o1 | 8% | -0.91
Cc1cc(=O)[nH]c(CCNC(=O)c2c(C)cc(C)n(C)c2=O)n1 | 0% | -0.07
CC(CC1CCCC1)C(=O)NC1CN(C(=O)OC(C)(C)C)CC1C#N (stereo not drawn) | -3% | 0.24
CCn1cc(C(C)NC(=O)C(C)n2nc(C(F)F)c(Br)c2C)c(C)n1 (stereo not drawn) | -37% | 4.31
Cn1c(CN2CCCC2)nnc1[C@H]1CCCN(c2cc(C#N)ccn2)C1 | -10% | 1.86
CC(C)Cc1n[nH]c(NC(=O)COc2cccc(-n3cnnc3)c2)n1 | -12% | 1.28
CN(C)[C@H]1CCN(c2cccc(C(F)(F)F)n2)C[C@H]1CCCO | -9% | 1.72
CCN(CC)C(=O)[C@@H]1CCC[C@@H](NCc2ccc(F)cc2)CN(C)C(=O)C1 | 17% | -1.93
CC(C)(C)[C@H]1CCCN(C(=O)c2ncc[nH]2)CC1 | -18% | 2.59
CCc1nnsc1C(=O)NCC(C)N1CCCCC1C (stereo not drawn) | -17% | 3.15
COCCC1(CN[C@H]2CCCc3c(OC)cccc32)CCC1 | 3% | -0.45
Cc1nc([C@@H]2CCCN2S(=O)(=O)CCN2CCCC2)no1 | -12% | 1.7
Cc1ccc(CC(=O)Nc2cc(-c3ccccn3)no2)cc1 | -12% | 2.13
CCc1nc2cc(N3CCC[C@H](C(=O)NCCN(C)C)C3)cnc2nc1CC | 2% | -0.46
CCCc1nc(C)cc(N(C)CCC2(O)CCCC2)n1 | 3% | -0.54
O=C(Nc1ccc(S(=O)(=O)N2CCCC2)cc1)Nc1cccc(C(F)(F)F)c1 | -7% | 0.95
COc1ccccc1-n1nc(Cc2ccccc2)n(CC(=O)NCCCO)c1=O | -7% | 1.27

Structure (SMILES) | % Inhibition | Z score
COc1ccc(Br)cc1Cc1nnnn1CC(=O)N(C)[C@@H](C)c1ccccc1 | -6% | 0.56
CC[C@@H]1Oc2ccc(NC(=O)CC(C)(C)C)cc2CN(Cc2cccc(OC)c2)C1=O | 1% | -0.1
O=C(N[C@H]1CC[C@@H](CO)CC1)c1ccc2ccncc2c1 | -5% | 0.8
Cc1noc(C)c1CN(Cc1ccc(Cl)cc1)C1CC1 | -5% | 0.42
O=C(Nc1ccc2c(c1)CCC2)c1cc2n(n1)CCN(Cc1cccc(Cl)c1)C2=O | -9% | 0.84
CS(=O)(=O)c1ccc2nc(NC(=O)[C@@H]3COCC(=O)N3Cc3ccccc3)sc2c1 | -8% | 1.19
Cc1cc(-c2ccccc2)[n+]2ccccc2n1 | -15% | 2.36
O=C(C[C@H]1Cc2ccccc2C2(CCN(C(=O)c3ccccc3)CC2)O1)N1CCOCC1 | -15% | 1.92
CC(C)c1nn(-c2ccccc2Cl)c(C(C)C)c1C(=O)NC1CC1 | -2% | 0.31
Brc1cc2c(cc1Cn1nnc(-c3ccc4c(c3)OCO4)n1)OCO2 | -5% | 0.62
CC[C@H]1C(=O)NCCN1C(=O)c1ccnn1C | -4% | 0.48
Cc1ccc2c(Nc3cccc(Br)c3)c(C(=O)N3CCCCCC3)cnc2n1 | -3% | 0.46
CCOC(=O)Cc1csc(NC(=O)N(C)[C@@H](C)CC#N)n1 | -6% | 0.93
COc1cc2c(cc1OC)C(Nc1cc(C)ccc1C)=NC(C)(C)C2 | 34% | -4.42
O=C1[C@@H]2CC[C@@H](c3ccccc3)N2C(=O)N1C1CCN(C2CCCC2)CC1 | -10% | 1.24
Cc1ccc(NC(=O)Cc2nc(C)c(C(=O)NCc3ccccc3)s2)cc1F | -13% | 1.64
Cc1noc([C@H](C)NC(=O)NCc2ncnn2C(C)(C)C)n1 | 12% | -1.69
COc1ccc(-c2nc3c(s2)[C@@H](NCCC2(O)CCC2)CCC3)cc1 | -16% | 2.81
CN(C)CCN1C(=O)N[C@@](Cc2cccc(F)c2)(C2CCN(C(=O)c3ccccc3F)CC2)C1=O | -5% | 0.73
CC1=C(C)CN(C(=O)c2cccnc2C)CC1 | 0% | 0.03
CNC(=O)[C@H](CC(C)C)NC(=O)c1scnc1C | -1% | 0.25
CC(C)c1cc(C(=O)N(Cc2ccncc2)C[C@@H]2CCC(=O)N2)n(C)n1 | -3% | 0.38
COc1ccc(-c2c3cnn(C(C)C)c3nc3[nH]c(=O)sc23)c(OC)c1 | -12% | 1.28
CC(NC(C)c1ccc(F)cc1F)c1nc2c(s1)CCC2 (stereo not drawn) | -10% | 1.81
Cc1cnc(CCN=C(N)N2CCCCCC2)nc1 | 4% | -0.62
Cc1n[nH]c(C2CN(CC(C)(O)c3ccccc3)CCO2)n1 (stereo not drawn) | -5% | 0.57
CC1CCN(C[C@H](O)Cn2ncc3ncccc3c2=O)CC1 | -9% | 1.19
